Some of the results follow. Each Rep nickase domain was tested in vitro on the same pool of single strands at 3 µM enzyme and 37 °C for 1 h; the strands have 90 letters, of which the middle is given. A value is the log2 ratio of uncut reads to the pool without enzyme; uncut sequences lie near 0, cut ones below; no hit call is given. Reads are scaled to the total; values above 0 arise when much of the pool is cut.
How the values were obtained:
Assay in all cases: uncleaved DNA left, log2 of reads against the no-enzyme library (log2 ratio); higher = less cleavage (more negative = more Rep cleavage of the k-mer); sequences stand for … in CTCGTCCG…ACCGGAGA
[1] = tested on: T1, Rep nickase domain of Muscovy duck circovirus
T1 sequence (protein, residues 1-111, tag omitted): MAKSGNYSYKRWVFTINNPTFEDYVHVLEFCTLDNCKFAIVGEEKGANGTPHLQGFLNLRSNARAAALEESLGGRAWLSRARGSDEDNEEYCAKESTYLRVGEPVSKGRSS
Description: (§1)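 A pool of 90-nt single-stranded DNAs with seven random bases just before the constant AC of the nick site (name = the seven bases) was cut by 3 µM recombinant His6-SUMO-tagged Rep nickase domain (300 nM DNA, 50 mM HEPES pH 8.0, 50 mM NaCl, 1 mM MnCl2, 1 h, 37 °C, three replicates). Uncut DNA was amplified and sequenced.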

[2] = tested on: T2, Rep nickase domain of banana bunchy top virus
T2 sequence (protein, residues 1-94, tag omitted): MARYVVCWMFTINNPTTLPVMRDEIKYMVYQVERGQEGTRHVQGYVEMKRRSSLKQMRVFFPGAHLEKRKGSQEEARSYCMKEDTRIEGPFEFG
Description: as §1

[3] = tested on: T3, Rep nickase domain of cabbage leaf curl virus
T3 sequence (protein, residues 1-116, tag omitted): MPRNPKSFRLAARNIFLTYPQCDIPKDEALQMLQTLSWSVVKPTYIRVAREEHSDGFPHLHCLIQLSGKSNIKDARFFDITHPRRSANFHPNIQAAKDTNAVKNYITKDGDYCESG
Description: as §1

[4] = tested on: T4, Rep nickase domain of chickpea chlorotic dwarf virus
T4 sequence (protein, residues 1-124, tag omitted): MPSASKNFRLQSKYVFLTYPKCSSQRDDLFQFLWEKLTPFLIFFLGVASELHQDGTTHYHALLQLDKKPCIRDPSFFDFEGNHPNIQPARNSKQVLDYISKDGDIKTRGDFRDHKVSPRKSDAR
Description: as §1

[5] = tested on: T5, Rep nickase domain of faba bean necrotic yellows virus
T5 sequence (protein, residues 1-98, tag omitted): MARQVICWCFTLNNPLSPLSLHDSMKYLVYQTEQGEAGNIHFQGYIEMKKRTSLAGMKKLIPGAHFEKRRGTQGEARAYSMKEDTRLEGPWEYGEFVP
Description: as §1

[6] = tested on: T6, Rep nickase domain of maize striate mosaic virus
T6 sequence (protein, residues 1-117, tag omitted): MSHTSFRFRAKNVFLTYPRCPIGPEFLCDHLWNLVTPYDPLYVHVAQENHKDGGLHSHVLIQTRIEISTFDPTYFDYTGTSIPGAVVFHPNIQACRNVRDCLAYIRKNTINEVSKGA
Description: as §1

[7] = tested on: T7, Rep nickase domain of porcine circovirus 2
T7 sequence (protein, residues 2-116, tag omitted): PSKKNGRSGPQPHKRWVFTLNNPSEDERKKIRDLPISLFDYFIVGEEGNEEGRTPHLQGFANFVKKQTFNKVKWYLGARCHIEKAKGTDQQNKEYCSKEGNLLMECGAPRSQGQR
Description: as §1

[8] = tested on: T8, Rep nickase domain of tomato yellow leaf curl virus
T8 sequence (protein, residues 1-136, tag omitted): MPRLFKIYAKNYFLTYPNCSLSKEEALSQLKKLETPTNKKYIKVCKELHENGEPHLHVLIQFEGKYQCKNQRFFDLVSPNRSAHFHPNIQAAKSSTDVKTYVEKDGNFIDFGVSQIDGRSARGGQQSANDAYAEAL
Description: as §1

[9] = tested on: T9, Rep nickase domain of wheat dwarf virus
T9 sequence (protein, residues 1-137, tag omitted): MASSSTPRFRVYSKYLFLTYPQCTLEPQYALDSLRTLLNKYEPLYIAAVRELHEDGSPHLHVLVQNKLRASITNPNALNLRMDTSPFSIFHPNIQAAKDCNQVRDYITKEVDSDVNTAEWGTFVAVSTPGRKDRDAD
Description: as §1

| Sequence | uncleaved DNA left (log2) [1] | uncleaved DNA left (log2) [2] | uncleaved DNA left (log2) [3] | uncleaved DNA left (log2) [4] | uncleaved DNA left (log2) [5] | uncleaved DNA left (log2) [6] | uncleaved DNA left (log2) [7] | uncleaved DNA left (log2) [8] | uncleaved DNA left (log2) [9] |
| --- | --- | --- | --- | --- | --- | --- | --- | --- | --- |
| GGCTCTG | -0.0335 | 0.0666 | 0.11 | 0.713 | -0.0337 | 1.55 | 0.0275 | 0.0656 | -0.0168 |
| TCCTCGA | -0.00518 | -0.0723 | -0.244 | -0.675 | -0.0474 | -1.06 | -0.017 | -0.0894 | 0.0429 |
| GACTAGG | 0.0308 | 0.0735 | 0.348 | 1 | 0.00861 | 0.82 | 0.169 | 0.0602 | 0.0764 |
| GGGTTGT | 0.103 | 0.0984 | 0.774 | 1.77 | -0.0428 | 2.09 | -0.0786 | 0.0588 | 0.00449 |
| TAAACGT | 0.124 | 0.0999 | -3.03 | -2.75 | 0.0437 | -0.769 | -0.054 | 0.0704 | -1.48 |
| GGCTACA | -0.0879 | 0.0463 | 0.492 | 0.849 | -0.00149 | 1.76 | -0.0232 | 0.0669 | 0.0618 |
| TTCAGAT | -0.0575 | -0.0517 | 0.238 | 0.659 | -0.0883 | 1.3 | 0.0825 | -0.242 | -0.0818 |
| CGGGCCT | 0.071 | 0.01 | 0.575 | 1.02 | 0.0469 | 1.68 | 0.0861 | -0.0524 | -0.0883 |
| CAATCTC | -0.166 | 0.0716 | -2.73 | -2.42 | -0.0998 | 0.211 | -0.197 | 0.0837 | -1.36 |
| CAAAAGA | -0.00199 | -0.00534 | -0.14 | -0.682 | 0.125 | -1.17 | 0.0984 | -0.105 | -0.0657 |
| GGGTCGC | -0.0328 | -0.0298 | 0.783 | 1.87 | -0.0789 | 2.12 | 0.125 | -0.0355 | 0.148 |
| GGGGGCT | 0.116 | -0.0125 | 0.876 | 1.74 | 0.0363 | 2.26 | 0.235 | 0.0256 | 0.146 |
| TTTTAGA | 0.0838 | -0.0172 | 0.102 | -0.0906 | 0.191 | -0.505 | 0.123 | 0.0383 | 0.0302 |
| GGGTTTG | 0.111 | 0.0973 | 0.737 | 1.48 | 0.0851 | 1.86 | 0.228 | 0.127 | 0.0667 |
| TATAAAT | -0.0589 | -0.383 | -0.303 | -1.77 | 0.0391 | -0.124 | -2.34 | 0.058 | 0.0308 |
| GTCCTAT | 0.0245 | 0.203 | 0.339 | 0.856 | 0.0716 | 1.75 | -0.031 | 0.116 | 0.158 |

From the supplement of paper PMC7826260
